# Measured values reported in PubChem BioAssay AID504832 (National Center for Advancing Translational Sciences (NCATS), 2011).
# In all, about 310,000 compounds went through this assay and about 18,000 (5.8%) were called active. This list was built around the results that the source calls inconclusive (neither active nor inactive); the mix of calls is not that of the screen. The call rests on the fitted dose curve; in most records, active means well fitted inhibition curve with a large enough effect; inconclusive means small, poorly fitted or top-dose-only effect, or another doubt; inactive means no such curve, though single readings can be large or run the other way. No potency is given beside an inconclusive call; the fits are too rough.
# Experiment: Primary qHTS for delayed death inhibitors of the malarial parasite plastid, 48 hour incubation
# Conditions: P. falciparum luciferase growth in erythrocytes; series mostly up to 28.7 µM
# Outline: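 A one-generation exposure of luciferase-tagged malaria parasites in RPMI 1640/Albumax erythrocyte culture, 37 C and 5% CO2. Inhibition is inferred from decreased luminescence after adding detection reagent.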
# On the % scale 0 is the no-effect control and ±100 the full control effect; potency means the concentration at half of the fitted maximal effect; tags describe the fitted curve by direction and shape.
Structure (SMILES),Potency,"activity change, negative = inhibition"
O=C(CSc1ccc(F)cc1)NCC1(N2CCOCC2)CCCCC1,"inconclusive [inhibitor, partial curve, poor fit]",
Cn1cc([N+](=O)[O-])c(C(=O)N/N=C/c2ccncc2)n1,"inconclusive [inhibitor, partial curve]",
COC(=O)[C@@]12CCCN1[C@H](c1ccc(SC3CCCCC3)cc1)[C@H]1C(=O)N(C)C(=O)[C@H]12,active: 10.4 µM,
COc1ccc(-n2c(=O)c3ccccc3n(CC(=O)NCc3ccco3)c2=O)cc1,"inconclusive [inhibitor, partial curve, poor fit]",
CC(C)C[C@@H](CN=[N+]=[N-])N1CCN(Cc2ccccc2)CCC1=O,inactive,
Cc1ccc2oc(-c3ccc(C)c(NC(=O)Cc4cccs4)c3)nc2c1,inactive,
Cc1cc(Nc2ccc(C)c(Cl)c2)nc(N2CCOCC2)n1,"inconclusive [inhibitor, single point]",
Cc1nn(Cc2c(F)c(F)c(F)c(F)c2F)c(C)c1NC(=O)c1c(-c2ccccc2)nn(-c2ccccc2)c1C,"inconclusive [inhibitor, single point]",
Cc1ccc(/C=C/c2nnc(-c3cccc(C)c3)o2)cc1,inactive,
COc1ccc(N2CCN(CCNC(=O)CCNS(=O)(=O)c3cccs3)CC2)cc1,"inconclusive [inhibitor, full curve, poor fit]",
FC(F)(F)c1ccc(Oc2ccc(Cl)cc2Br)nc1,,inactive: 6.86% [at 5.75 µM]
CN1CN(C)c2cccc3cccc1c23,"inconclusive [inhibitor, partial curve]",
O=C(/C(=N/N=C/c1ccc(O)c(O)c1O)c1ccccc1)c1ccccc1,active: 10.4 µM,
COc1cc(CN2CCC(C(=O)N3CCCC(C)C3)CC2)cc(Br)c1O (centres undefined),"inconclusive [inhibitor, partial curve, poor fit]",
Cc1ccc(S(=O)(=O)c2cc3c(=O)n4ccccc4nc3n(C3CCCCC3)c2=N)cc1,inactive,
Cc1cc(CN2CCCCC2C(=O)Nc2ccc(Oc3cccnc3)cc2)oc1C (centres undefined),"inconclusive [inhibitor, single point]",
CCOC(=O)C1C2C=CC3(CN(C4CCCC4)C(=O)C13)O2 (centres undefined),inactive,
COc1ccc(NC(=O)C2CCN(C(=O)NC3CCCCC3)CC2)c(OC)c1,"inconclusive [inhibitor, partial curve]",
CC1CCN(C(=O)/C(=C\c2cccs2)NC(=O)c2ccccc2)CC1,inactive,
O=C(CCCN1C(=O)/C(=C/c2cccs2)SC1=S)NNC(=O)c1ccc(F)cc1,"inconclusive [inhibitor, partial curve, poor fit]",
COc1ccccc1NC(=O)c1c(NC(=O)c2ccco2)sc2c1CCC2,"inconclusive [inhibitor, full curve, poor fit]",
CC(C)CN(C(=O)c1cccc(Cl)c1)c1c(N)n(Cc2ccccc2)c(=O)[nH]c1=O,"inconclusive [inhibitor, single point]",
COc1cc(NC2=CC(=O)CC(C)(C)C2)cc(OC)c1OC,"inconclusive [inhibitor, single point]",

Structure (SMILES),Potency,"activity change, negative = inhibition"
COc1ccc(C2=NN(C(=O)CCC(=O)O)C(c3ccc(Br)cc3)C2)cc1 (centres undefined),inactive,
COCCNC(=O)/C(C#N)=C/c1ccc(O)c([N+](=O)[O-])c1,inactive,
COc1ccccc1/C=C\C=N\n1c(-c2ccc(Cl)cc2)n[nH]c1=S,inactive,
Cc1cc2nncn2c2ccccc12,"inconclusive [inhibitor, single point]",
CCn1cc(Cl)c(C(=O)Nc2nccs2)n1,inactive,
COc1ccc(C(=O)N(C)CC2CCN(CCc3cccc(C(F)(F)F)c3)CC2)cc1C,"inconclusive [inhibitor, single point]",
C/C(CC(=O)Nc1ccc(Cl)c(C(F)(F)F)c1)=N\NC(=O)c1cnccn1,"inconclusive [inhibitor, partial curve, poor fit]",
CCCc1cc(=O)[nH]c(SC(C)C(=O)N2c3ccccc3CC2C)n1 (centres undefined),"inconclusive [inhibitor, single point]",
CC(C)CCC[C@@H](C)[C@H]1CC[C@H]2[C@@H]3CC[C@@H]4C[C@H](O)CC[C@]4(C)[C@H]3CC[C@]12C,inactive,
CSc1ccccc1NC(=O)CN(C)C(=O)Cn1c(=O)oc2ccccc21,"inconclusive [inhibitor, partial curve, poor fit]",
CCN1CCN(c2nc(-c3ccccc3)nc3ccccc23)CC1,"inconclusive [inhibitor, partial curve]",
Cc1ccc(N/C=C(\C#N)S(=O)(=O)c2ccccc2)cc1,"inconclusive [inhibitor, single point]",
COc1ccc(OC)c(NC(=O)Cc2cccs2)c1,inactive,
CCN1CCN(c2ccc(NC(=O)c3cc(OC)c(OC)c(OC)c3)cc2)CC1,inactive,
COc1ccc(NC(C)=O)cc1S(=O)(=O)N1CCN(C(=O)c2ccccc2F)CC1,active: 2.08 µM,
CC(=O)C1=C(C)Nc2ncnn2C1c1ccc(Cl)cc1Cl (centres undefined),"inconclusive [inhibitor, full curve, poor fit]",
CCC1CCCCN1C(=O)c1sc2nc(C)nc(N(CC)CC)c2c1C (centres undefined),"inconclusive [inhibitor, single point]",
Cc1c(OCC(=O)OC(C)(C)C)ccc2c3c(c(=O)oc12)CCC3,"inconclusive [inhibitor, partial curve, poor fit]",
CC(C)NC(=O)Nc1n[nH]c(Nc2ccc(Cl)cc2)n1,inactive,
CCOC(=O)c1c(C)[nH]c(C(=O)OC(C)C(=O)NC2CCCCC2C)c1C (centres undefined),"inconclusive [inhibitor, partial curve, poor fit]",
Nn1c(SCC(=O)NCc2ccccc2)nncc1=O,inactive,
COc1ccc(C2C(C#N)=C(N)Oc3c2c(C)nn3-c2ccccc2)cc1Cn1nc(C)c([N+](=O)[O-])c1C (centres undefined),"inconclusive [inhibitor, full curve, poor fit]",
Cc1c(NC(=O)C(C)OC(=O)c2cccs2)c(=O)n(-c2ccccc2)n1C (centres undefined),inactive,

Structure (SMILES),Potency,"activity change, negative = inhibition"
CCCCc1cc(=O)oc2c(C)c(OCC(=O)N3CCC(C(N)=O)CC3)ccc12,"inconclusive [inhibitor, single point]",
CCOC(=O)c1cc(C)n(CCc2ccccc2)c1C,"inconclusive [inhibitor, single point]",
O=[N+]([O-])c1cccc(-c2nc3ccc([N+](=O)[O-])cc3[nH]2)c1,"inconclusive [inhibitor, single point]",
Cc1ccn2c(=O)nc(SCC(=O)N3CCCc4ccccc43)nc2c1,"inconclusive [inhibitor, single point]",
CCCC(NC(=O)C(C)N1CCN(S(=O)(=O)c2ccccc2)CC1)c1ccccc1 (centres undefined),inactive,
COc1ccc(NC(=O)C2CCN(S(=O)(=O)c3ccc(Br)s3)CC2)cc1OC,"inconclusive [inhibitor, single point]",
CC(=O)NC(=O)COC(=O)/C=C/c1c(C)nn(Cc2c(Cl)cccc2Cl)c1Cl,"inconclusive [inhibitor, single point]",
CCCCCN(C(=O)NC(=O)Nc1ccccc1C)S(=O)(=O)c1ccccc1,inactive,
COC(=O)/C=C1\SC(N2CCOCC2)=C(c2ccc(OC)cc2)C1=O,"inconclusive [inhibitor, full curve, poor fit]",
CCCCCCCCn1c(=O)c(C(=O)OC)c(N)c2ccccc21,active: 14.7 µM,
CSc1nc2n(n1)C(c1cccs1)C1=C(CCCC1=O)N2 (centres undefined),inactive,
CC(=O)Nc1ccc(S(=O)(=O)N2CC(=O)NC(=O)C2)cc1,"inconclusive [inhibitor, partial curve, poor fit]",
O=c1[nH]c(Cc2cccs2)nc2scc(-c3ccc(Cl)cc3)c12,"inconclusive [inhibitor, full curve, poor fit]",
CN(C)C(=O)N1CCC(C(=O)N2CCCC(C(=O)c3ccc(C(C)(C)C)cc3)C2)CC1 (centres undefined),"inconclusive [inhibitor, single point]",
COCCCNC(=O)CC1C(=O)N(Cc2ccccc2)C(C)c2nc3ccccc3n21 (centres undefined),"inconclusive [inhibitor, partial curve, poor fit]",
CCOC(=O)Cn1nc(C)cc1NC(=O)c1cccnc1,inactive,
COc1ccc(CCNC(=O)CCCn2c(SCC(N)=O)nc3cc4c(cc3c2=O)OCO4)cc1OC,inactive,
Cc1cc(=O)[nH]c(NCCO)n1,inactive,
CN1CCN(C(=O)c2ccc3c(c2)N(C)C(=O)/C(=C/c2cccc(Cl)c2)S3)CC1,"inconclusive [inhibitor, partial curve, poor fit]",
CCCCCSc1nncc(=O)[nH]1,inactive,
Cc1ccc(S(=O)(=O)N2CCN(C(=O)CSc3nc4ccccc4c(=O)[nH]3)CC2)c(C)c1,"inconclusive [inhibitor, single point]",
CCOC(=O)N1CCc2c(sc3c2c(=O)n(Cc2ccccc2)c(=O)n3Cc2ccc(C)cc2)C1,"inconclusive [inhibitor, full curve]",
Cc1cc(S(=O)(=O)N2CCCCC2)ccc1OCC(=O)Nc1ccccc1,"inconclusive [inhibitor, partial curve]",
